Assay results: PubChem BioAssay AID1347165 (National Center for Advancing Translational Sciences (NCATS), 2019)
The campaign covered roughly 220,000 compounds. About 5,700 (2.6%) were called active. The shares of active, inactive and inconclusive entries below differ from those in the screen. Calls follow the shape of the dose curve; as a rule, active = well fitted inhibition curve with a large enough effect; inconclusive = small, poorly fitted or top-dose-only effect; inactive = no such curve, though single readings can be large or run the other way. Where the call is inconclusive, the potency comes from a doubtful curve fit.
Also: nearly all actives have a fitted effect of over 70% in size.
For activity change, negative = inhibition in this document: 0% is about no effect.
Potency is read from the fitted curve at half-maximal effect; tags tell the direction and shape of the fitted curve.

Each compound was assayed against Lysine-specific demethylase 5B (Homo sapiens) (UniProt Q9UGL1) (assay: Primary screen for KDM5B Histone Demethylases FDH-coupled qHTS). Conditions: FDH-coupled NADH fluorescence (FDH is formaldehyde dehydrogenase); activity change, negative = inhibition: at 57.7 µM (top of the series) unless noted.
UniProt Q9UGL1, sequence (Q9UGL1 whole entry, looked up): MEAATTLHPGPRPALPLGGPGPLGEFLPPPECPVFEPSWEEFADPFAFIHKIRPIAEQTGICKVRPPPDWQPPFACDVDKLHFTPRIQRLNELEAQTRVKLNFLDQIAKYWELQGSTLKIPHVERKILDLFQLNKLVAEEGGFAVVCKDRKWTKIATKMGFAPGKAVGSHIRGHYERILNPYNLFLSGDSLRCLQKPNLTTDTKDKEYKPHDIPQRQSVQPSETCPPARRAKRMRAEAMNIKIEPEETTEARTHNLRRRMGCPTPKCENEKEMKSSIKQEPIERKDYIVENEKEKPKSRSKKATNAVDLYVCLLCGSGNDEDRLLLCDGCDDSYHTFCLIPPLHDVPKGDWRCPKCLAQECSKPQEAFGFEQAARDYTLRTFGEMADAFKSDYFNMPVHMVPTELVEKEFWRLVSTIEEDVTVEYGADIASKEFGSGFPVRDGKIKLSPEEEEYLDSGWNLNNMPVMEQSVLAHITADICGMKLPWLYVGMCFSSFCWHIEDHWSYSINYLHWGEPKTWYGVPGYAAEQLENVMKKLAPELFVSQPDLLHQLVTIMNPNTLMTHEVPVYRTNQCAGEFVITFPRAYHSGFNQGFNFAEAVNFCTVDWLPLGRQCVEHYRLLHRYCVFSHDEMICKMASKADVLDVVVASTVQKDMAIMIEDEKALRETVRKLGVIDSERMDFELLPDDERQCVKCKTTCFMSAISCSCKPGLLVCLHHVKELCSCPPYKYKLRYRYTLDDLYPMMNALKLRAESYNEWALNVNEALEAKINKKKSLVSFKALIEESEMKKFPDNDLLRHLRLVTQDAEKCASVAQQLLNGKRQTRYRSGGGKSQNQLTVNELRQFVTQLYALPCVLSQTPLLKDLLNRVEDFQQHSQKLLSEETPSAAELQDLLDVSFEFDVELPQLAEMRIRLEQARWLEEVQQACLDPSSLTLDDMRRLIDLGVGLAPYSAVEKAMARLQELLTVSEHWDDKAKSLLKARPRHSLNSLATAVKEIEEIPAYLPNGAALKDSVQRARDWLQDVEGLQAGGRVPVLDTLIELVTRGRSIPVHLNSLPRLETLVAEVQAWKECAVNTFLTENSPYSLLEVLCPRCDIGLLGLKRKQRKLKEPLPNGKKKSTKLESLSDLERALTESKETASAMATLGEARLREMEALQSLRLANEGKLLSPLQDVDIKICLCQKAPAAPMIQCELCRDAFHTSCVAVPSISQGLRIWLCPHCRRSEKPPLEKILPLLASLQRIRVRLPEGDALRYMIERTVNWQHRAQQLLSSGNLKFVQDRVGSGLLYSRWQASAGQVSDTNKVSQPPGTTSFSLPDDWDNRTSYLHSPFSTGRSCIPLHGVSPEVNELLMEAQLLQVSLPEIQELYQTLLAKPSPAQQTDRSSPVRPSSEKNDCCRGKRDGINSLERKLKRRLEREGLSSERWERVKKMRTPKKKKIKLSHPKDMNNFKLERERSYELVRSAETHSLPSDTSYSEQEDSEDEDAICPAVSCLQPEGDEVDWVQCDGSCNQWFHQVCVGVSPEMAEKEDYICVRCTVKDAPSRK
Outline: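 Compound dilutions met 200 nM (final) KDM5BΔAP for 10 min at room temperature before substrate addition. The substrate mix held 12.5 µM H3K4me3 with cofactors 25 µM α-ketoglutarate and 50 µM Fe²⁺. NADH signal gain over 30 min defined activity.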
`CN(C)C(=O)N1CCC2(CC1)CN(C(=O)c1cccc3[nH]ccc13)Cc1ccccc1O2` was tested, and the Potency was active: 50.1 µM.
With `Nc1nccnc1C(=O)NCCc1cccc(Cl)c1` the Potency was inconclusive: 28.2 µM [inhibitor, partial curve, poor fit].
For `Cc1ccc(C(=O)N2CCC(c3noc(C4CC4)n3)C2)cn1` (centres undefined), the “activity change, negative = inhibition” value was inactive: 12.2%.
For `NC(=O)c1ccccc1OCC(=O)Nc1ccc(S(=O)(=O)N2CCCCC2)cc1`, the “activity change, negative = inhibition” value was inactive: -11.8%.
In the case of `CCOC(=O)c1cccc(NC(=O)N2CCC(CN3CCCCCC3)CC2)c1`, the Potency is reported as inconclusive: 31.6 µM [inhibitor, single point].
In the case of `CCOc1c(OC)cccc1-c1nc2ccc(-c3ccc(OC)c(OC)c3OC)cc2o1`, the Potency is reported as active: 12.6 µM.
For `Cc1cccc(CC(=O)NCCc2csc(-c3ccc(C(F)(F)F)cc3)n2)c1`, the Potency was inconclusive: 35.5 µM [inhibitor, partial curve, poor fit].
With `S=c1[nH]c(-c2ccccc2)c(-c2ccccc2)[nH]1` the Potency was inconclusive: 7.94 µM [inhibitor, full curve, poor fit].
With `OB1Oc2ccccc2-c2ccccc21` the “activity change, negative = inhibition” value was inactive: 2.32%.
In the case of `O=C(O)[C@@H]1CN(C(=O)CCc2ccc(=O)[nH]n2)C[C@H]1C1CC1`, the “activity change, negative = inhibition” value is reported as inactive: 0.143%.
For `O=[N+]([O-])c1cccc(/C=N/c2nc3c(s2)CCCC3)c1`, the Potency was inconclusive: 39.8 µM [inhibitor, single point].
`COc1ccccc1CNC(=O)C(CC(C)C)N1Cc2ccccc2C1=O` (centres undefined) was tested, and the Potency was inconclusive: 14.1 µM [inhibitor, partial curve, poor fit].
With `CCOC(=O)c1ccc(N2C(=O)c3n[nH]c(-c4ccco4)c3C2c2ccc(F)cc2)cc1` (centres undefined) the Potency was inconclusive: 35.5 µM [inhibitor, single point].
With `O=C(NC1CCCCC1)c1cc2n(n1)CC(c1ccc3c(c1)OCO3)OC2` (centres undefined) the “activity change, negative = inhibition” value was inactive: -12%.
In the case of `COc1cccc(-c2noc(-c3ccc(S(=O)(=O)N4CCCC4)o3)n2)c1`, the “activity change, negative = inhibition” value is reported as inactive: 26.7%.
In the case of `CN(C)[C@@H]1CN(Cc2cc(F)c(F)c(F)c2)CC[C@@H]1CNC(=O)C1CC1`, the Potency is reported as inconclusive: 22.4 µM [inhibitor, partial curve, poor fit].
With `COc1ccc(-c2cc3ccccc3n2CC(O)CN2CCCCC2)cc1` (centres undefined) the Potency was inconclusive: 25.1 µM [inhibitor, partial curve, poor fit].
In the case of `COc1ccccc1N1CCN(CC[C@H]2CN(C(=O)N3CCOCC3)CC[C@H]2CC(=O)O)CC1`, the Potency is reported as inconclusive: 20 µM [inhibitor, partial curve].
In the case of `CCOc1ccc(CCNC(=O)c2cnc3sc(N4CCCCCC4)nn3c2=O)cc1`, the Potency is reported as inconclusive: 1.78 µM [inhibitor, full curve, poor fit].
